Test results published in PubChem BioAssay AID504374 (National Center for Advancing Translational Sciences (NCATS), 2011).
Screen size: about 1,500 compounds; about 100 (6.7%) were called active. Inconclusive results (about 7%) are left out. The call rests on the fitted dose curve; in most records, active means well fitted inhibition curve with a large enough effect; inconclusive means small, poorly fitted or top-dose-only effect, or effect the other way; inactive means flat fitted curve, though single readings scatter. This is one part of the list.

molecular target: Runt-related transcription factor 1 (Homo sapiens) + Core-binding factor subunit beta (Homo sapiens) (UniProt Q01196+Q13951); assay: qHTS Assay for Compounds Blocking the Interaction Between CBF-beta and RUNX1 for the Treatment of Acute Myeloid Leukemia: Hit Validation; details: AlphaScreen CBFb-His/RUNX1-biotin binding; series mostly up to 59.8 µM; activity, negative = inhibition: at the top concentration; further: nearly all actives have a fitted effect of over 60% in size
Procedure, shortened: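 AlphaScreen proximity assay: His-tagged CBF-beta and biotinylated RUNX1 (30 nM each) preincubated 20 min, then compound 15 min, then nickel and streptavidin beads 90 min, all at room temperature; signal read at […]em 440 nm.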
On the % scale 0 is the no-effect control and ±100 the full control effect; potency means the concentration at half of the fitted maximal effect.

Chain of UniProt Q01196 (Q01196 whole entry, looked up): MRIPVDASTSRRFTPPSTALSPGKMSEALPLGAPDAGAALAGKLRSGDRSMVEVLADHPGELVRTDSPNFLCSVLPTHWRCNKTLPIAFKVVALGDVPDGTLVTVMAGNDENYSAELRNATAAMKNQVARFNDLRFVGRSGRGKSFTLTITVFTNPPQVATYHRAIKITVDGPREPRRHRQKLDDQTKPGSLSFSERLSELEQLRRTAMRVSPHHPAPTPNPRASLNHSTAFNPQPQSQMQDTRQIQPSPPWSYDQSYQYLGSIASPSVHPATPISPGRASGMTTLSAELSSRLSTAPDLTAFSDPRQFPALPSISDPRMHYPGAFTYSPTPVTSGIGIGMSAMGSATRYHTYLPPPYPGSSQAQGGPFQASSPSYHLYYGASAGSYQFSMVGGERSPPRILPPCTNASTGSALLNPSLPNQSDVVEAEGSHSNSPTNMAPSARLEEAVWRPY
Chain of UniProt Q01196 (Q13951 whole entry, looked up): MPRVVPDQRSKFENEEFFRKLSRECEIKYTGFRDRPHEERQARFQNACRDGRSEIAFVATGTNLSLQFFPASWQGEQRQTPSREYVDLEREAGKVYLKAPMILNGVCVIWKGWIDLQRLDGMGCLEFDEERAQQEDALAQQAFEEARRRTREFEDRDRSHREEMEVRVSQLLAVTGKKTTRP

activity, negative = inhibition, inactive:
COc1cc(/C=C2\SC(=S)N(NC(=O)c3ccncc3)C2=O)ccc1O 1.27%
CCCOc1ccc(CSC(=N)N)cc1C(=O)OC -9.01%
COc1ccccc1N1CC(C)(C)C(=O)N(C(=O)c2c(F)cccc2Cl)C1=S -4.1%
CC(C)CCCC(C)CCOC(=O)CN1CCCC1 (centres undefined) 1.51%
O=C(O)c1cccc(COc2ccc3c(c2)CCC3)c1 -5.45%
COc1cc(C(=O)NC(=S)Nc2ccc3c(c2)OCO3)cc(OC)c1OC -1.22%
NC(=O)NN=C1C2CCCC1C(c1ccccc1)NC2c1ccccc1 (centres undefined) -7%
Nc1nn(-c2ccccc2)c(N)c1N=Nc1cccc(F)c1 -18.7%
Cc1nn(C)c(C)c1NC(=O)c1ccccc1NC(=O)Nc1ccccc1 0.256%
COc1ccc2c(c1)[nH]c1c(N3CCSCC3)ncnc12 -8.99%
NC(=O)c1ccccc1OCC(=O)Nc1ccc(Cl)c(Cl)c1 5.37%
Clc1ccc(C2=Nn3c(Cn4nnc5ccccc54)nnc3SC2)cc1 -3.94%
COc1cccc(C(=O)NNC2=C(C(=O)C(F)(F)F)CCC2)c1 -9%
Cc1c(-c2ccc(Br)cc2)[n+](=O)c2c(n1[O-])CCCCC2 -3.63%
Cn1c(=O)c([N+](=O)[O-])c(NCc2ccc3c(c2)OCO3)c2ccccc21 2.42%
CCOC(=O)N1CCc2c(sc(NC(=O)CN3CCOCC3)c2C#N)C1 22.5%
Cc1ccc(S(=O)(=O)N2CCCCC2)cc1NC(=O)Cn1cnnn1 4.59%
CCN(CC)C(=S)SCC(=O)Nc1ncc2c(n1)CCCC2=O 5.8%
CCN(CC)S(=O)(=O)c1cccc(NC2=NCCCCC2)c1 11.5%
CN1CCN(C(=O)Nc2cccc(-c3ccccc3)c2)CC1 1.01%
CCOC(=O)/C(C#N)=C/Nc1ccccc1OC(F)(F)F -2.36%
Cc1ccc(NC(=S)N(C)C)cc1C -1.37%
Cc1ccc(C(=O)CSc2nnc(-c3snnc3C)n2C2CC2)cc1 5.91%
CCNC(=O)COC(=O)c1cc(S(=O)(=O)N2CCCCC2)ccc1C -10.6%
NCCc1ccc(O)c(O)c1 -10.7%
COC(=O)c1sccc1S(=O)(=O)Nc1ccc(C)cc1 6.17%
Cc1cc(NS(=O)(=O)c2ccc(NC(=O)CSc3nc4ncc(Cl)cc4[nH]3)cc2)nc(C)n1 2.6%

Potency, active:
O=C(O)C[C@@H]1C(=O)O[C@@H]2C(COC(=O)c3cc(O)c(O)c(O)c3)O[C@@H](OC(=O)c3cc(O)c(O)c(O)c3)[C@@H](OC(=O)c3cc(O)c(O)c4c3[C@H]1[C@H](O)C(=O)O4)[C@H]2OC(=O)c1cc(O)c(O)c(O)c1 (some centres undefined) 31.6 nM
CCc1cccc(NC(=O)CCCCCC2NC(=O)NC2C)c1 (centres undefined) 447 nM
